Laboratory results: PubChem BioAssay AID1460 (National Center for Advancing Translational Sciences (NCATS), 2008)
Values joined by “and” are separate entries in the source; they are usually repeats but may differ in a detail not shown here. Identical values can stand only once. Out of some 270,000 compounds screened, about 5,800 (2.1%) were called active. This list was built around the results that the source calls inconclusive (neither active nor inactive); the mix of calls is not that of the screen. The call rests on the fitted dose curve; in most records, active means well fitted inhibition curve with a large enough effect; inconclusive means small, poorly fitted or top-dose-only effect; inactive means flat fitted curve, though single readings scatter. A potency beside an inconclusive call is a rough fit, not a confirmed value.
Further: nearly all actives have a fitted effect of over 55% in size.
Potency means the concentration at half of the fitted maximal effect; tags describe the fitted curve by direction and shape.

Each compound was assayed against Microtubule-associated protein tau (Homo sapiens) (UniProt P10636) (assay: qHTS for Inhibitors of Tau Fibril Formation, Thioflavin T Binding). Settings: recombinant tau K18 P301L, heparin-induced fibrillization, ThT fluorescence; series mostly up to 57.4 µM.
Sequence of UniProt P10636 (P10636 whole entry, looked up): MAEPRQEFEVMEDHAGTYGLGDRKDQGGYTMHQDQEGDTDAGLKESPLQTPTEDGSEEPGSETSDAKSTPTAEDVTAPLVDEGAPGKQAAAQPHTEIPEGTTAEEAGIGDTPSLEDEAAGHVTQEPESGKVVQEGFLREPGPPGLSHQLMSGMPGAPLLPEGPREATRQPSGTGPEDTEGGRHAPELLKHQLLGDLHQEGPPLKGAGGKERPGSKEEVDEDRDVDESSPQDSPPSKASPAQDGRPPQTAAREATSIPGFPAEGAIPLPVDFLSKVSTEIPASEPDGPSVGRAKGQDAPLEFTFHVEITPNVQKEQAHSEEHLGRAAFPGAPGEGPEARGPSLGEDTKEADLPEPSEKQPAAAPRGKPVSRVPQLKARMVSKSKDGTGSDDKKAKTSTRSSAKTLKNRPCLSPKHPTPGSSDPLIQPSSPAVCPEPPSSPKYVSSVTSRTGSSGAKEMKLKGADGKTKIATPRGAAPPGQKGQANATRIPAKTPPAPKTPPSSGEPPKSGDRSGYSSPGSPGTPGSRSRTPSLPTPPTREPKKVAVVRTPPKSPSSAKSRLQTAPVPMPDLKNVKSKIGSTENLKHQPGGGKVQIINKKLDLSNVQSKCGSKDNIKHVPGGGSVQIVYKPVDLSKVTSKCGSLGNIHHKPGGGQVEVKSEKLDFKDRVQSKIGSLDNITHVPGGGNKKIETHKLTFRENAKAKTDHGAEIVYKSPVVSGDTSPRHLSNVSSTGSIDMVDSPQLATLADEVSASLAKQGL
Outline: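 ThT emission at 510 nm, taken 1 hr after adding 30 uM dye, quantifies aggregates formed when 20 uM heparin acts on human tau K18 P301L for 6 hr at 37 C.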
In the case of Cn1c(SC2=CS(=O)(=O)c3ccccc32)nc2ccccc21, the Potency is reported as inconclusive: 15.8 µM [inhibitor, partial curve].
With COc1cc(/C=N/Nc2nc(Nc3ccccc3)nc(N3CCCCC3)n2)ccc1OCC(=O)O the Potency was inconclusive: 20 µM [inhibitor, partial curve].
With C=CCSc1nnc(C)c(/C=C/Nc2ccc(Cl)cc2)n1 the Potency was inconclusive: 17.8 µM [inhibitor, partial curve, poor fit].
For CC(C(=O)OCC(=O)c1ccccc1)N1C(=O)c2ccccc2C1=O (stereo not given), the Potency was “inactive”.
For CCCCCCOc1ccc(N2C(=O)CC(NCCc3ccc(S(N)(=O)=O)cc3)C2=O)cc1 (stereo not given), the Potency was inconclusive: 44.7 µM [inhibitor, single point].
In the case of CN(C)CCCNC(=O)COc1ccc(Br)cc1Cl, the Potency is reported as “inactive”.
For Cc1cc(C)cc(C(=O)Nc2ccc3[nH]c(=O)[nH]c3c2)c1, the Potency was inconclusive: 22.4 µM [inhibitor, partial curve].
For Clc1ccc(CNc2nc(CN3CCOCC3)nc3scc(-c4ccccc4)c23)cc1, the Potency was inconclusive: 22.4 µM [inhibitor, partial curve].
With CCCOc1ccc(C(=O)Nc2ccc(N3CCN(C(C)=O)CC3)cc2)cc1 the Potency was active: 2.24 µM.
In the case of CCCCC[C@H](O)C/C=C1/C(=O)C=C[C@@H]1C/C=C\CCCC(=O)O, the Potency is reported as inconclusive: 25.1 µM [inhibitor, partial curve].
With CN(C)S(=O)(=O)c1cccc(NC(=O)CSc2nc3c(cc2C#N)C(=O)CC(C)(C)C3)c1 the Potency was inconclusive: 39.8 µM [inhibitor, single point].
O=C1COc2cc(S(=O)(=O)CCC(=O)NC3CCCCC3)c(Cl)cc2N1 was tested, and the Potency was inconclusive: 0.1 µM [inhibitor, full curve, poor fit].
COc1ccc(C)cc1-n1cnc2cc(C(=O)NC3CCCCCC3)ccc21 was tested, and the Potency was inconclusive: 20 µM [inhibitor, single point].
For Cc1nn(CCC(N)=S)c2nc(-c3cccs3)cc(C(F)(F)F)c12, the Potency was inconclusive: 39.8 µM [inhibitor, single point].
With Cc1ccc(NC(=O)CCNS(=O)(=O)c2ccc3c(c2)oc(=O)n3C)c(C)c1 the Potency was “inactive”.
With O=C(NC(=S)Nc1ccc(N2CCOCC2)cc1)c1ccc2c(c1)OCCO2 the Potency was inconclusive: 7.08 µM [inhibitor, partial curve].
With Fc1ccc(N2CCN(c3nc(-c4ccco4)cc(C(F)(F)F)n3)CC2)cc1 the Potency was inconclusive: 25.1 µM [inhibitor, partial curve].
With CCc1nc(-c2cc(S(=O)(=O)N3CCN(c4ccccc4)CC3)ccc2OC)no1 the Potency was inconclusive: 2.24 µM [inhibitor, full curve].
With CC1CCCCN1S(=O)(=O)c1ccc(C(=O)Nc2sccc2C(N)=O)cc1 (stereo not given) the Potency was “inactive”.
In the case of Cn1c(SCC(=O)Nc2nc3ccccc3s2)ncc(C(=O)Nc2ccccc2)c1=O, the Potency is reported as inconclusive: 15.8 µM [inhibitor, partial curve].
With CCN(CC)c1nc2ccccc2nc1C(C#N)C(=O)NCCc1ccccc1 (stereo not given) the Potency was inconclusive: 12.6 µM [inhibitor, partial curve].
In the case of CCCn1c(C)cc(-c2csc(N)n2)c1C, the Potency is reported as active: 15.8 µM.
For CC(=O)c1cccc(Nc2ccc(-c3ccccc3F)nn2)c1, the Potency was inconclusive: 14.1 µM [inhibitor, partial curve].
For CN(C)S(=O)(=O)c1ccc(C(=O)N2CCC(c3nc4ccccc4o3)CC2)cc1, the Potency was “inactive”.
O=c1[nH]c2ccccc2n1CCCSCCCn1c(=O)[nH]c2ccccc21 was tested, and the Potency was inconclusive: 3.16 µM [inhibitor, full curve].
For C[C@]12CC[C@@H]3c4ccc(O)cc4CC[C@H]3[C@@H]1C[C@@H](O)[C@@H]2O[C@@H]1O[C@H](C(=O)O)[C@@H](O)[C@H](O)[C@H]1O, the Potency was “inactive”.
CCCC(C(=O)O)n1c(O)c(C=C2N=c3ccccc3=N2)sc1=S (stereo not given) was tested, and the Potency was inconclusive: 10 µM [inhibitor, partial curve].
For CCCCn1nnc(NC(=S)NC(=O)c2cccs2)n1, the Potency was “inactive”.
Cc1cc(OCC(=O)O/N=C(\N)c2ccccc2)ccc1Br was tested, and the Potency was inconclusive: 14.1 µM [inhibitor, partial curve].
O=C(NCCn1cc(SCc2ccc(Br)cc2)c2ccccc21)c1cccs1 was tested, and the Potency was inconclusive: 12.6 µM [inhibitor, partial curve].
In the case of CC1(C(=O)NC(=S)N(CCC#N)c2ccccc2)CC1(Cl)Cl (stereo not given), the Potency is reported as “inactive”.
O=C(CSC1=NCCN1)Nc1cccc([N+](=O)[O-])c1 was tested, and the Potency was inconclusive: 20 µM [inhibitor, partial curve].
COC(=O)Cn1c(=O)c2c(n(Cc3ccccc3)c1=O)N/C(=C/c1ccc(OC)cc1)C2=O was tested, and the Potency was inconclusive: 20 µM [inhibitor, partial curve, poor fit].
CCOC(Cn1c(SCc2cc(C(C)=O)ccc2OC)nc2ccccc2c1=O)OCC was tested, and the Potency was “inactive”.
Oc1ccc(NC(=S)N=Nc2c(O)[nH]c3ccc(Br)cc23)cc1 was tested, and the Potency was active: 5.01 µM.
In the case of CCNC(=S)Nc1cc(-c2ccc(Cl)cc2)[nH]n1, the Potency is reported as inconclusive: 39.8 µM [activator, single point].
O=C(/C=C/c1ccccc1)Nc1ccc(Cl)cn1 was tested, and the Potency was “inactive”.
For Cc1cc(C)cc(NC(=O)C2CCCN2S(=O)(=O)c2ccc3nc(-c4ccccc4)[nH]c3c2)c1 (stereo not given), the Potency was “inactive”.
In the case of CCN1CCN(C(=O)C2c3cc(OC)c(OC)cc3C(=O)N(C)C2c2ccc(SC)cc2)CC1 (stereo not given), the Potency is reported as “inactive”.
In the case of O=C(COc1ccc(/C=N/NC(=O)c2cc3ccccc3o2)cc1Br)Nc1ccccc1, the Potency is reported as inconclusive: 0.199 µM [inhibitor, full curve, poor fit].
In the case of Cc1cc(C)cc(OCCCn2c(-c3ccc(Cl)cc3)nc3ccccc3c2=O)c1, the Potency is reported as “inactive”.
In the case of COc1ccc(/C=C/C(=O)NCCc2ccc(OC)c(OC)c2)cc1, the Potency is reported as inconclusive: 4.47 µM [inhibitor, partial curve].
Cc1ccc(C(=O)N/N=C\c2c(C)nn(-c3ccccc3)c2Cl)cn1 was tested, and the Potency was inconclusive: 7.94 µM [inhibitor, full curve, poor fit].
With CCOC(=O)c1ccc(-n2c(CN3CCN(CCO)CC3)nc3ccc([N+](=O)[O-])cc3c2=O)cc1 the Potency was inconclusive: 15.8 µM [inhibitor, partial curve].
Cc1nc(C(=O)NCCC(C)C)sc1C1(C)CC(c2cccc([N+](=O)[O-])c2)=NO1 (stereo not given) was tested, and the Potency was inconclusive: 25.1 µM [inhibitor, single point].
CCCCCCCN[C@H]1CCC[C@@H]1CCCCCCC(=O)O was tested, and the Potency was “inactive”.
With COC(=O)c1ccccc1NC(=O)c1nc(S(=O)(=O)Cc2ccccc2F)ncc1Cl the Potency was inconclusive: 22.4 µM [inhibitor, partial curve, poor fit].
In the case of O=C1CCCC(O)=C1C1NCCc2ccccc21 (stereo not given), the Potency is reported as inconclusive: 12.6 µM [inhibitor, partial curve].
CC1CCN(c2oc(-c3ccccc3F)nc2C#N)CC1 was tested, and the Potency was inconclusive: 14.1 µM [inhibitor, partial curve, poor fit].
In the case of Cc1ccc(-n2ncc3c2ncn2c(C)nnc32)cc1C, the Potency is reported as inconclusive: 3.55 µM [inhibitor, full curve].
Cc1ccc(-n2nc(C(=O)N3CCN(c4ccccc4)CC3)c(=O)n(C)c2=O)cc1 was tested, and the Potency was inconclusive: 2.51 µM [activator, single point].
With Cc1ccc2oc(C(=O)Nc3ccc(S(=O)(=O)N(C)Cc4ccccc4)cc3)cc(=O)c2c1 the Potency was inconclusive: 4.47 µM [activator, partial curve].
In the case of CCOc1cc2c(C#N)c(N3CCCCC3)nc(N)c2c(N)n1, the Potency is reported as inconclusive: 14.1 µM [inhibitor, partial curve].
In the case of CC1(OC(=O)C2CCCC2)C(=O)C=C2C=C(c3ccsc3)N(C3CC3)C=C2C1=O (stereo not given), the Potency is reported as inconclusive: 28.2 µM [inhibitor, single point] and inconclusive: 7.08 µM [inhibitor, single point].
For CC[C@@H](C)[C@H](NS(=O)(=O)c1cccc2ccccc12)C(=O)N[C@H](C=O)Cc1c[nH]c2ccccc12, the Potency was inconclusive: 25.1 µM [inhibitor, partial curve, poor fit].
C/C(=N\Nc1nc2c(s1)CCCC2)c1ccccc1 was tested, and the Potency was active: 14.1 µM.
With CCc1ccccc1NC(=O)C1CCN(c2nn3c(=O)cc(C)nc3s2)CC1 the Potency was inconclusive: 5.62 µM [inhibitor, partial curve, poor fit].
With CN(C)S(=O)(=O)Nc1ccc(-c2cn3ccsc3n2)cc1 the Potency was “inactive”.
With O=C(CSCc1cnn(-c2ccccc2)c1-n1cccc1)NCc1ccccc1F the Potency was “inactive”.
In the case of CCOC(=O)c1c(C)[nH]c(N=Nc2cccc(OC)c2)c1C, the Potency is reported as active: 5.01 µM.
CCCN1CCN(c2ncnc3sc(C(=O)Nc4ccc(N(CC)CC)cc4C)c(C)c23)CC1 was tested, and the Potency was inconclusive: 1 µM [inhibitor, partial curve].
With COc1cccc(C(=O)Nc2sc3c(c2C#N)CCN(C(C)=O)C3)c1 the Potency was inconclusive: 14.1 µM [inhibitor, partial curve].
For Cc1ccn2c(Nc3ccc4c(c3)OCO4)c(-c3ccc(O)cc3)nc2c1, the Potency was inconclusive: 15.8 µM [inhibitor, partial curve] and inconclusive: 17.8 µM [inhibitor, partial curve].
With Cc1cc(C)cc(Nc2ncc3c(n2)CC(c2ccco2)CC3=O)c1 (stereo not given) the Potency was inconclusive: 20 µM [inhibitor, single point].
For O=C(Nc1ccc(N2CCCC2)c(Cl)c1)c1ccco1, the Potency was inconclusive: 28.2 µM [inhibitor, partial curve].
